Measured values reported in PMC12491506.
Substitutions are numbered along the chain they refer to. Results are given in words; binding and its absence hold for the method and conditions named. Binding seen in cells or lysates may run through a third protein. Some binding calls cover weakened binding; strength is not graded here. Sequences can lack the tags named with a protein.

Tests used:
Assay in all cases: co-IP; GFP-trap from lysates of HEK293T cells transfected with GFP-tagged LRMDA or its mutants, endogenous partners on blots (Figs 2C, 2D, 3B, 4E); lysis in 0.5% NP-40, 100 mM Tris-HCl pH 7.5 in PBS; 1 h at 4 °C
[1] = molecular target: T1, GFP-LRMDA^1-176 (human)
T1 sequence: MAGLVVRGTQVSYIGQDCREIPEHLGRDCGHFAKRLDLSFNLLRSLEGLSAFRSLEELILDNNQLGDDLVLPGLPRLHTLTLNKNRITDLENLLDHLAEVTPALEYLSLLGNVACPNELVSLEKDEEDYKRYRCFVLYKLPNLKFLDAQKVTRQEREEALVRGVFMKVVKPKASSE

[2] = molecular target: T2, GFP-LRMDA L189D (human)
T2 sequence: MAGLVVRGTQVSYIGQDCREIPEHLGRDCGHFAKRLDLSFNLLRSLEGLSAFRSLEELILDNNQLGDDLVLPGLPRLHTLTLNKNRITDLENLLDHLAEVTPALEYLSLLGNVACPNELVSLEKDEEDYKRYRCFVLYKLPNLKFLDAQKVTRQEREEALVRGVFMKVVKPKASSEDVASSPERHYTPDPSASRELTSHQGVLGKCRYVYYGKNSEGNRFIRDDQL

[3] = molecular target: T3, GFP-LRMDA R222stop (human)
T3 sequence: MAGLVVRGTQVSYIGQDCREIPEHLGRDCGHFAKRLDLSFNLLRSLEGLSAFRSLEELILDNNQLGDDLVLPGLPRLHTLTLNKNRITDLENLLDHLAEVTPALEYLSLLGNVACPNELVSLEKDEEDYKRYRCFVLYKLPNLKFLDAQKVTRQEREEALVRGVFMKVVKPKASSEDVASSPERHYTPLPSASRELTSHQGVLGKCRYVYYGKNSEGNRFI

[4] = molecular target: T4, GFP-LRMDA (human)
T4 sequence: T2 sequence with D189L

[5] = molecular target: T5, GFP-LRMDA I221A (human)
T5 sequence: T2 sequence with D189L, I221A

[6] = molecular target: T6, GFP-LRMDA F145D (human)
T6 sequence: T2 sequence with F145D, D189L

[7] = molecular target: T7, GFP-LRMDA^127-226 (human)
T7 sequence: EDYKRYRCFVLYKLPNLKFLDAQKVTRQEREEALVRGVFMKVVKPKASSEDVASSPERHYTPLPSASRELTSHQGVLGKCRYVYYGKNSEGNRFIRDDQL

[8] = molecular target: T8, GFP-LRMDA D223A (human)
T8 sequence: T2 sequence with D189L, D223A

binding [1]: binds
binding [2]: binds
binding [3]: binds
binding [4]: binds
binding [5]: binds
binding [6]: no binding
binding [7]: no binding
binding [8]: binds
B1: RAB32 (endogenous) (protein, UniProt Q13637 1-225)
chain: MAGGGAGDPGLGAAAAPAPETREHLFKVLVIGELGVGKTSIIKRYVHQLFSQHYRATIGVDFALKVLNWDSRTLVRLQLWDIAGQERFGNMTRVYYKEAVGAFVVFDISRSSTFEAVLKWKSDLDSKVHLPNGSPIPAVLLANKCDQNKDSSQSPSQVDQFCKEHGFAGWFETSAKDNINIEEAARFLVEKILVNHQSFPNEENDVDKIKLDQETLRAENKSQCC
